# Measurements taken from publication PMC10294536.
# The chains behind the UniProt entries cited, without tags or fusion partners. Where a name states a change or a piece, a line headed by the entry shows the natural chain unless it says otherwise.
# UniProt O14744: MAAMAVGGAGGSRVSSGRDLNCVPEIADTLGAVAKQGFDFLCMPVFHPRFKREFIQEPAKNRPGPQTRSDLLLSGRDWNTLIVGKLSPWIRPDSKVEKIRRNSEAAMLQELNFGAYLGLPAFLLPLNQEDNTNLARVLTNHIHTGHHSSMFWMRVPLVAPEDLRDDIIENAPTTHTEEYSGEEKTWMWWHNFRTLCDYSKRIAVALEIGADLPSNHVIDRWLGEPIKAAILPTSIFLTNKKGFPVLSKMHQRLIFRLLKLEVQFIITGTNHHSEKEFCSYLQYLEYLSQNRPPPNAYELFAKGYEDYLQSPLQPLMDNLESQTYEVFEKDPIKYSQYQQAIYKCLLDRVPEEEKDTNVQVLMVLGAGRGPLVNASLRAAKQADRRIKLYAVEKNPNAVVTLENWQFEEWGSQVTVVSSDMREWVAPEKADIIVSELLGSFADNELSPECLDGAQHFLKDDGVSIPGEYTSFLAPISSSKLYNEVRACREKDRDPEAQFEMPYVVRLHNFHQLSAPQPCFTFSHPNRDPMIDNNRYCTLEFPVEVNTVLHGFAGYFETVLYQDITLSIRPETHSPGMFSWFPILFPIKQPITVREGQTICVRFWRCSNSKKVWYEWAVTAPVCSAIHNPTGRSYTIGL
# UniProt P84077: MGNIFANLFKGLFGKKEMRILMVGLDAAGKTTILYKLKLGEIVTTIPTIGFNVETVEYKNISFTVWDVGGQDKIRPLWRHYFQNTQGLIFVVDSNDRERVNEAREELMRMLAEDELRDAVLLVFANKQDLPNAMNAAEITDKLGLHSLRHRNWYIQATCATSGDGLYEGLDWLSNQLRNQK
# UniProt Q15643: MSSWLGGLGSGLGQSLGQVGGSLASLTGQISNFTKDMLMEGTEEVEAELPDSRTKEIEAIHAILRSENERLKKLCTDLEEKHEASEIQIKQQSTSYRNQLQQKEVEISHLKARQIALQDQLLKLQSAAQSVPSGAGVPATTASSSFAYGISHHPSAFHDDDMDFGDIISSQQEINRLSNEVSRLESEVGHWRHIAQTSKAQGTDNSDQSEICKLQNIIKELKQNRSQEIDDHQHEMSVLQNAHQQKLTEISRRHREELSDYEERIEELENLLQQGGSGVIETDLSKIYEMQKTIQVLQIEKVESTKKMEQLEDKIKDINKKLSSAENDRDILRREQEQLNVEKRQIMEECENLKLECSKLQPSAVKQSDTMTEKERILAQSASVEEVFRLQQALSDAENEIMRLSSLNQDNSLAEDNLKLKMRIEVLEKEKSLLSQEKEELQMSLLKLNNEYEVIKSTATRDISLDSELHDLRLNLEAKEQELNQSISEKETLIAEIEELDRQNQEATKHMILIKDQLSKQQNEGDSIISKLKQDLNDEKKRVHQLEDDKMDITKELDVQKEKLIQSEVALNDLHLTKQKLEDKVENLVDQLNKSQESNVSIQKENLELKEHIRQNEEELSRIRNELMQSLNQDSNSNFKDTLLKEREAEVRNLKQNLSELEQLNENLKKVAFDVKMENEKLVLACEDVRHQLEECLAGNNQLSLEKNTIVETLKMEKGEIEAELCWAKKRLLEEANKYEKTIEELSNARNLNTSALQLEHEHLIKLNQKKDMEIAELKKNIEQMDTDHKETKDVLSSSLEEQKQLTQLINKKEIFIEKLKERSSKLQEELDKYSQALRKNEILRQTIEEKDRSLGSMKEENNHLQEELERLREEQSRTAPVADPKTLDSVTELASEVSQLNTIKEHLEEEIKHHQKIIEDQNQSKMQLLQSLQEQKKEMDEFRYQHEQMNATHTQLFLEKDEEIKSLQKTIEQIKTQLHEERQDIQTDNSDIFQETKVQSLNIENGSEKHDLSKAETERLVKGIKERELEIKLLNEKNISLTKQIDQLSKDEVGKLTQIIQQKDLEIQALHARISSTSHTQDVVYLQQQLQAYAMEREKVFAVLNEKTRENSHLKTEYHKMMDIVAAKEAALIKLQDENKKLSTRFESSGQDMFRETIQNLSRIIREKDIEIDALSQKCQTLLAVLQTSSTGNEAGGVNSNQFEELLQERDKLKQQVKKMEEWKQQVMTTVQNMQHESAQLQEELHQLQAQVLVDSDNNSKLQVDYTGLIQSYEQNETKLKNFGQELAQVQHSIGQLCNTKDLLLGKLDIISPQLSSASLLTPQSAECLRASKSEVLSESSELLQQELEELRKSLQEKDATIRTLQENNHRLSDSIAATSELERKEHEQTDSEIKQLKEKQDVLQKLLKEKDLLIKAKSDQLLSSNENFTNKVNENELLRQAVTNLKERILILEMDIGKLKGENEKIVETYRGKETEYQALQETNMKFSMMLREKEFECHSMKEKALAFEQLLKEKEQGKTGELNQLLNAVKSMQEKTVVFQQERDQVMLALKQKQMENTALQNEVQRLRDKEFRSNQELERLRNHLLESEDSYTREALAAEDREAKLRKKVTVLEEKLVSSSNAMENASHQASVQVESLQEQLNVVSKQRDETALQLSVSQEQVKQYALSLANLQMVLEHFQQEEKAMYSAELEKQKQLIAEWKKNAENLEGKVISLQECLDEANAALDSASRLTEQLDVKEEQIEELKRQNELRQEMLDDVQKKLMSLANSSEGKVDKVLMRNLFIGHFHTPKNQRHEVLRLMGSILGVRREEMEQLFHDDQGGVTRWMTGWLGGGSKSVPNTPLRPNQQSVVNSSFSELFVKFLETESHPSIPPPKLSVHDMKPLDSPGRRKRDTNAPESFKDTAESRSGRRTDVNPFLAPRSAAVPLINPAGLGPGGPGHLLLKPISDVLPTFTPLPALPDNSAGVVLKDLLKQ
# Results are given in words; binding and its absence hold for the method and conditions named. Binding seen in cells or lysates may run through a third protein. Some results given as binding are weak or reduced against the parent protein; the word gives no strength. For part of these data: Where a sequence is shown, tags or fusion partners need not be part of it.
# T1: HURP p725 (human (endogenous in HeLa)) (UniProt Q15398)
# T1 sequence (chain, phosphoserine at 725): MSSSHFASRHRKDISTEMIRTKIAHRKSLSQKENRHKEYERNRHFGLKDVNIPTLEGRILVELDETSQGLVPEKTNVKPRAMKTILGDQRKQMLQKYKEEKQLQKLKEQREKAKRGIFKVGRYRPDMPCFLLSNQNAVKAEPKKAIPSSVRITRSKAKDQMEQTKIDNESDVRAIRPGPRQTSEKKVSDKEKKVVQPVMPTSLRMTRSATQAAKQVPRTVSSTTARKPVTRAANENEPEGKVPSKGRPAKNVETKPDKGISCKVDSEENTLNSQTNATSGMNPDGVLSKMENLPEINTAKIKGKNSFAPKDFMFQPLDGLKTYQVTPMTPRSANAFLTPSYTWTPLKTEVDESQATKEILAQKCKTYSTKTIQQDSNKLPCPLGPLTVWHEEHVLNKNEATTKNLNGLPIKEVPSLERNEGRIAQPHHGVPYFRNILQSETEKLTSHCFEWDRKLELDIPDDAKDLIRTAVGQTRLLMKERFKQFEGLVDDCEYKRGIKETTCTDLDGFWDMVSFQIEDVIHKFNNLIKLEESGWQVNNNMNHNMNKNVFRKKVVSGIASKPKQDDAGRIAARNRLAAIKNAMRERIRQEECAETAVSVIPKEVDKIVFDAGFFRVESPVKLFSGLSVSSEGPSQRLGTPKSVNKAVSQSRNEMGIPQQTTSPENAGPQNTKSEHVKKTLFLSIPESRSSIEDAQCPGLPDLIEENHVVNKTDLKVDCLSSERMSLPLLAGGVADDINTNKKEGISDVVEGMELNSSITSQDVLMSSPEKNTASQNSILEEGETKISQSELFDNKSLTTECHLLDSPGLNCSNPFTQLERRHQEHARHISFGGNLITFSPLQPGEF
# T2: HA-HURP 725A (UniProt Q15398)
# T2 sequence: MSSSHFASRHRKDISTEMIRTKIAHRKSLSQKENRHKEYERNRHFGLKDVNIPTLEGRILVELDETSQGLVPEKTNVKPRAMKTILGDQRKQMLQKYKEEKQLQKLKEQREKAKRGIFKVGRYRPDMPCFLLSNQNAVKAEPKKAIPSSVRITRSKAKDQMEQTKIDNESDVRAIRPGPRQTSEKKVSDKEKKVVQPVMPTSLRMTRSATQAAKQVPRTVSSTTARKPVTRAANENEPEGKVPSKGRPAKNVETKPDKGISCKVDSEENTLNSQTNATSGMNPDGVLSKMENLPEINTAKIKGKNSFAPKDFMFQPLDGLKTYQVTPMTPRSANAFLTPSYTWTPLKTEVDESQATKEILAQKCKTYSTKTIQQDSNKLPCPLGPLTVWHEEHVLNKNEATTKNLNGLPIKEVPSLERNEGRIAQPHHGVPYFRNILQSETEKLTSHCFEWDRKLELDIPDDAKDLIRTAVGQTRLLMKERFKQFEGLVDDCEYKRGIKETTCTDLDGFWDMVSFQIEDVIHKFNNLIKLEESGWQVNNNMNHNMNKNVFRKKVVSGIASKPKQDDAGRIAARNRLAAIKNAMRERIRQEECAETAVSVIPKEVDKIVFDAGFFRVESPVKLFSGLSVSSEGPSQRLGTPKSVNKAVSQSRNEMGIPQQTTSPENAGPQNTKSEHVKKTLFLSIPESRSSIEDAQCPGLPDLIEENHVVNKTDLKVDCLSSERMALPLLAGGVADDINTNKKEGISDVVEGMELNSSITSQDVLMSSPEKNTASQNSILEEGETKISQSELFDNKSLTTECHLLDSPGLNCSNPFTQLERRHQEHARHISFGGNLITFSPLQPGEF
# T3: HA-HURP 725E (UniProt Q15398)
# T3 sequence: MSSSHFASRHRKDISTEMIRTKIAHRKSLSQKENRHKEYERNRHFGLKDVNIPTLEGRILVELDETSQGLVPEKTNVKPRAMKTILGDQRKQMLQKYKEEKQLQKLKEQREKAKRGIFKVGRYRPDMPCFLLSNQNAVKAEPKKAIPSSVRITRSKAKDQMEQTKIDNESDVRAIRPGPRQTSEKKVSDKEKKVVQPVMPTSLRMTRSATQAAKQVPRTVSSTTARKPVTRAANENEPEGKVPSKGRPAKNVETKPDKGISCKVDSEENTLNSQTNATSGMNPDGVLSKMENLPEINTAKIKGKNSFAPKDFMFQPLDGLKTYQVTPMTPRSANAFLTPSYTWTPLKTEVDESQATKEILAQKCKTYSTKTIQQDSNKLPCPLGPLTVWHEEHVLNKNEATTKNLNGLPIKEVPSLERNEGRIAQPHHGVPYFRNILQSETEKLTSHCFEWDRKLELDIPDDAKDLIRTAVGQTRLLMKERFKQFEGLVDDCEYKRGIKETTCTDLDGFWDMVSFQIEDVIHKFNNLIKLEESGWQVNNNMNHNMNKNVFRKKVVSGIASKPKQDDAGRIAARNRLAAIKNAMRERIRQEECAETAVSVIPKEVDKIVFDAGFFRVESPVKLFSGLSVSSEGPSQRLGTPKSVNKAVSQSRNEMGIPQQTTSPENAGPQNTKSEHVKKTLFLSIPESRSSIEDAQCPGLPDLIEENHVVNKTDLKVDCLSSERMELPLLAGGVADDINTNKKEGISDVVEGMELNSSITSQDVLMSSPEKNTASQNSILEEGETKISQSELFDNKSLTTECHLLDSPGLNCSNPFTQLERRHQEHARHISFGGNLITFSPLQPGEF
# T4: HA tagged HURP 1–300 (UniProt Q15398)
# T4 sequence: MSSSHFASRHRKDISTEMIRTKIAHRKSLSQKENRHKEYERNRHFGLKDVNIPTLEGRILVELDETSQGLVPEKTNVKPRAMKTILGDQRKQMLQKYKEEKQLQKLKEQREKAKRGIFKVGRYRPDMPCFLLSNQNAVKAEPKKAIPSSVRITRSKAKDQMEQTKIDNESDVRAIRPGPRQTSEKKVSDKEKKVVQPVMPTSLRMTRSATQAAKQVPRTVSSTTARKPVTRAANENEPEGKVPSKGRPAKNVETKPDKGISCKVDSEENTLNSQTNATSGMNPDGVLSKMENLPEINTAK
# Columns and labels:
# [1] = target: T1, HURP p725 (human (endogenous in HeLa)); assay: co-IP; HA-tagged ARF1 WT or T31N with HURP p725; cells and precipitating antibody not stated (Fig. 7E)
# HA-HURP 725A = target: T2, HA-HURP 725A; assay: co-IP; 293T cells transfected with GFP-TRIP11 and versions of HA-HURP; precipitating antibody not stated (Fig. 5A)
# HA-HURP 725E = target: T3, HA-HURP 725E; assay: as above
# HA tagged HURP 1–300 = target: T4, HA tagged HURP 1–300; assay: co-IP; 293 cells transfected with GFP-TRIP11 and HA tagged HURP FL, 1-300 or 300-846; immunoprecipitation with antibodies against HA (Fig. 5E)
# [2] = target: PRMT5 (human (endogenous in HeLa)) (UniProt O14744); assay: co-IP; HeLa cell extract, immunoprecipitation with antibodies against PRMT5, Western blots for PRMT5, HURP, Aurora-A and Ajuba (Fig. 1A)
# [3] = target: PRMT5 (human (endogenous in HeLa)) (UniProt O14744); assay: co-IP; HeLa cells harboring HA-HURP, with or without Myc-Ajuba, or with shLuc or shAjuba; immunoprecipitation with antibodies against PRMT5, Western blots (Fig. 1B)
Molecule,binding [1],binding [2],binding [3],further results
HA-ARF1 T31N (from UniProt P84077 1-181),no binding,–,–,–
GFP-TRIP11 (from UniProt Q15643 1-1979),–,–,–,binding (HA-HURP 725A): no binding; binding (HA-HURP 725E): binds; binding (HA tagged HURP 1–300): binds
HA-ARF1 WT (from UniProt P84077 1-181),no binding,–,–,–
"Aurora-A (enzyme, UniProt O14965 1-403) MDRSKENCISGPVKATAPVGGPKRVLVTQQFPCQNPLPVNSGQAQRVLCPSNSSQRIPLQAQKLVSSHKPVQNQKQKQLQATSVPHPVSRPLNNTQKSKQPLPSAPENNPEEELASKQKNEESKKRQWALEDFEIGRPLGKGKFGNVYLAREKQSKFILALKVLFKAQLEKAGVEHQLRREVEIQSHLRHPNILRLYGYFHDATRVYLILEYAPLGTVYRELQKLSKFDEQRTATYITELANALSYCHSKRVIHRDIKPENLLLGSAGELKIADFGWSVHAPSSRRTTLCGTLDYLPPEMIEGRMHDEKVDLWSLGVLCYEFLVGKPPFEANTYQETYKRISRVEFTFPDFVTEGARDLISRLLKHNPSQRPMLREVLEHPWITANSSKPSNCQNKESASKQS",–,binds,binds,–
"HURP (protein, UniProt Q15398 1-846) MSSSHFASRHRKDISTEMIRTKIAHRKSLSQKENRHKEYERNRHFGLKDVNIPTLEGRILVELDETSQGLVPEKTNVKPRAMKTILGDQRKQMLQKYKEEKQLQKLKEQREKAKRGIFKVGRYRPDMPCFLLSNQNAVKAEPKKAIPSSVRITRSKAKDQMEQTKIDNESDVRAIRPGPRQTSEKKVSDKEKKVVQPVMPTSLRMTRSATQAAKQVPRTVSSTTARKPVTRAANENEPEGKVPSKGRPAKNVETKPDKGISCKVDSEENTLNSQTNATSGMNPDGVLSKMENLPEINTAKIKGKNSFAPKDFMFQPLDGLKTYQVTPMTPRSANAFLTPSYTWTPLKTEVDESQATKEILAQKCKTYSTKTIQQDSNKLPCPLGPLTVWHEEHVLNKNEATTKNLNGLPIKEVPSLERNEGRIAQPHHGVPYFRNILQSETEKLTSHCFEWDRKLELDIPDDAKDLIRTAVGQTRLLMKERFKQFEGLVDDCEYKRGIKETTCTDLDGFWDMVSFQIEDVIHKFNNLIKLEESGWQVNNNMNHNMNKNVFRKKVVSGIASKPKQDDAGRIAARNRLAAIKNAMRERIRQEECAETAVSVIPKEVDKIVFDAGFFRVESPVKLFSGLSVSSEGPSQRLGTPKSVNKAVSQSRNEMGIPQQTTSPENAGPQNTKSEHVKKTLFLSIPESRSSIEDAQCPGLPDLIEENHVVNKTDLKVDCLSSERMSLPLLAGGVADDINTNKKEGISDVVEGMELNSSITSQDVLMSSPEKNTASQNSILEEGETKISQSELFDNKSLTTECHLLDSPGLNCSNPFTQLERRHQEHARHISFGGNLITFSPLQPGEF",–,binds,–,–
"HA-HURP (protein, UniProt Q15398 1-846) MSSSHFASRHRKDISTEMIRTKIAHRKSLSQKENRHKEYERNRHFGLKDVNIPTLEGRILVELDETSQGLVPEKTNVKPRAMKTILGDQRKQMLQKYKEEKQLQKLKEQREKAKRGIFKVGRYRPDMPCFLLSNQNAVKAEPKKAIPSSVRITRSKAKDQMEQTKIDNESDVRAIRPGPRQTSEKKVSDKEKKVVQPVMPTSLRMTRSATQAAKQVPRTVSSTTARKPVTRAANENEPEGKVPSKGRPAKNVETKPDKGISCKVDSEENTLNSQTNATSGMNPDGVLSKMENLPEINTAKIKGKNSFAPKDFMFQPLDGLKTYQVTPMTPRSANAFLTPSYTWTPLKTEVDESQATKEILAQKCKTYSTKTIQQDSNKLPCPLGPLTVWHEEHVLNKNEATTKNLNGLPIKEVPSLERNEGRIAQPHHGVPYFRNILQSETEKLTSHCFEWDRKLELDIPDDAKDLIRTAVGQTRLLMKERFKQFEGLVDDCEYKRGIKETTCTDLDGFWDMVSFQIEDVIHKFNNLIKLEESGWQVNNNMNHNMNKNVFRKKVVSGIASKPKQDDAGRIAARNRLAAIKNAMRERIRQEECAETAVSVIPKEVDKIVFDAGFFRVESPVKLFSGLSVSSEGPSQRLGTPKSVNKAVSQSRNEMGIPQQTTSPENAGPQNTKSEHVKKTLFLSIPESRSSIEDAQCPGLPDLIEENHVVNKTDLKVDCLSSERMSLPLLAGGVADDINTNKKEGISDVVEGMELNSSITSQDVLMSSPEKNTASQNSILEEGETKISQSELFDNKSLTTECHLLDSPGLNCSNPFTQLERRHQEHARHISFGGNLITFSPLQPGEF",–,–,binds,–
